Data reported in US20240392016A1 (Sanofi, published 2024).

Experiments:
human NKp46 [1] = molecular target: T1, human NKp46 (human, UniProt O76036 22-255, limits assumed); assay: affinity measurement, method not stated in the example (mean ± SD)
T1 construct: also called CD335; Natural cytotoxicity triggering receptor 1
T1 sequence: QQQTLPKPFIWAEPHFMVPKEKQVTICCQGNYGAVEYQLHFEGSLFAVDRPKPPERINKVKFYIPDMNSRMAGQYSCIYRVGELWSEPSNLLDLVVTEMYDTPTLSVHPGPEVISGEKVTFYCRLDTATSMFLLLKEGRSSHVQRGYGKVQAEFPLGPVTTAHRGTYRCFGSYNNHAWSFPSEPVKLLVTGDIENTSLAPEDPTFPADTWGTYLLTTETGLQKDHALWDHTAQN

[2] = molecular target: T2, cell surface CD123 on human AML cells (human, UniProt P26951 19-378); assay: cell-based or functional assay
T2 sequence (looked up): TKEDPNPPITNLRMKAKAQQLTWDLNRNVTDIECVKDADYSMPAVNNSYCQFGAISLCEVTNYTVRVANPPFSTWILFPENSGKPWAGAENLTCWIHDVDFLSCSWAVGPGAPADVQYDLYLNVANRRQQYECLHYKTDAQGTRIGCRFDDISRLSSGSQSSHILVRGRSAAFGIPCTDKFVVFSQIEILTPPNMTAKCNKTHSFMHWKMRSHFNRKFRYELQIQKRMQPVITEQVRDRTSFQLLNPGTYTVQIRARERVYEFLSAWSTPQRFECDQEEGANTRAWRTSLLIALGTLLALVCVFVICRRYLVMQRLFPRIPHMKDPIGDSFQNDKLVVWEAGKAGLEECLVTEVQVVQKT

NHP CD123 = molecular target: T3, NHP CD123 (nonhuman primate (cynomolgus monkey …)); assay: KD2, CD123 binding affinity fixed in the in vivo NHP PK/PD model; source: internal data, method not stated
T3 construct: Neither the construct nor the assay is stated; also called CD123 (in vivo NHP PK/PD model)

[3] = molecular target: T2, cell surface CD123 on human AML cells; assay: cell-based or functional assay; remark: listed apart in the source
human CD123 = molecular target: T4, human CD123 (human, UniProt P26951 19-305); assay: KD2, CD123 binding affinity fixed in the in vitro PK/PD model; source: internal measurement for humans, method not stated
T4 construct: also called IL-3Ra; interleukin-3 receptor alpha chain
T4 sequence: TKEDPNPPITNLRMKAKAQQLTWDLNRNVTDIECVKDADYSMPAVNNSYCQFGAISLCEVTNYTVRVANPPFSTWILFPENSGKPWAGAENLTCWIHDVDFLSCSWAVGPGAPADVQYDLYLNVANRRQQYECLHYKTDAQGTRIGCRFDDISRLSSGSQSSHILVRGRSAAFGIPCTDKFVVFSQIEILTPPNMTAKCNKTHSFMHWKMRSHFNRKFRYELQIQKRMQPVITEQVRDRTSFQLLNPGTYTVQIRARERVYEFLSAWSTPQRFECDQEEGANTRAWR

human NKp46 [4] = molecular target: T1, human NKp46; assay: KD1, NKp46 binding affinity fixed in the in vitro PK/PD model; source: internal measurement for humans, method not stated

- Kd (human NKp46 [1]): 16.3 nM
- Kd (NHP CD123): 1.23 nM
- Kd (human CD123): 0.404 nM
- Kd (human NKp46 [4]): 16.6 nM
B1: CD123 NKCE (bispecific antibody, human IgG1, kappa)
chain 1: DIVMTQSPDSLAVSLGERATINCESSQSLLSSGNQKNYLTWYQQKPGQPPKPLIYWASTRESGVPDRFSGSGSGTDFTLTISSLQAEDVAVYYCQNDYSYPYTFGQGTKLEIKRTVAAPSVFIFPPSDEQLKSGTASVVCLLNNFYPREAKVQWKVDNALQSGNSQESVTEQDSKDSTYSLSSTLTLSKADYEKHKVYACEVTHQGLSSPVTKSFNRGE[letters of human IgG1 Fc not shown]
chain 2: EVQLVQSGAEVKKPGESLKISCKGSGYSFTDYYMKWARQMPGKGLEWMGDIIPSSGATFYNQKFKGQVTISADKSISTTYLQWSSLKASDTAMYYCARSHLLRASWFAYWGQGTMVTVSSASTKGPSVFPLAPSSKSTSGGTAALGCLVKDYFPEPVTVSWNSGALTSGVHTFPAVLQSSGLYSLSSVVTVPSSSLGTQTYICNVNHKPSNTKVDKRV[letters of human IgG1 Fc not shown]TGSQVQLVQSGAEVKKPGSSVKVSCKASGYTFSDYVINWVRQAPGQGLEWMGEIYPGSGTNYYNEKFKAKATITADKSTSTAYMELSSLRSEDTAVYYCARRGRYGLYAMDYWGQGTTVTVSSASTKGPSVFPLAPSSKSTSGGTAALGCLVKDYFPEPVTVSWNSGALTSGVHTFPAVLQSSGLYSLSSVVTVPSSSLGTQTYICNVNHKPSNTKVDKRVEPKSCDKTHS
chain 3: DIQMTQSPSSLSASVGDRVTITCRASQDISNYLNWYQQKPGKAPKLLIYYTSRLHSGVPSRFSGSGSGTDFTFTISSLQPEDIATYFCQQGNTRPWTFGGGTKVEIKRTVAAPSVFIFPPSDEQLKSGTASVVCLLNNFYPREAKVQWKVDNALQSGNSQESVTEQDSKDSTYSLSSTLTLSKADYEKHKVYACEVTHQGLSSPVTKSFNRGEC
notes: also called NKp46-CD123_F25; trifunctional NK cell engager
- Cytotoxic activity by fresh NK cells against KG-1a (3000 CD123 sites/cell); geometric mean of EC50 rel [2]: 4530 pg/mL and 30.2 pM
- Cytotoxic activity by fresh NK cells against MOLM-13 (20,000 CD123 sites/cell); geometric mean of EC50 rel [2]: 637 pg/mL and 4.2 pM
- Cytotoxic activity by fresh NK cells against NB-4 (1800 CD123 sites/cell); geometric mean of EC50 rel [2]: 435 pg/mL and 2.9 pM
- Cytotoxic activity against primary AML blasts with healthy donor NK cells as effectors; EC50 rel [3]: 3.5 ng/mL and 23.2 pM

Where “and” joins values, the source holds several entries; their conditions need not be identical. Equal values may be shown once.
